Source: the supplement of paper PMC8728848
This is one part of the list.

Assays:
Assay in all cases: glycan array binding signal (z-score within array); higher = stronger binding
Conditions in all cases: glycan notation: IUPAC condensed, linker removed
[1] = target: Man(a1-2)Man(a1-2)Man(a1-6)[Man(a1-3)]Man
Summary of the method: (§1)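 Negative Z-scores can be read as non-binding. The Z-score is calculated within each array and then averaged across arrays of one protein sequence at different concentrations or buffers and across linkers. Arrays, 3228 in all, were curated from the Consortium for Functional Glycomics database and kept only where the protein sequence was available.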

Man(a1-2)Man(a1-3)Man = target: Man(a1-2)Man(a1-3)Man
Summary of the method: as §1

[2] = target: Man(a1-2)Man(a1-3)[Man(a1-2)Man(a1-6)]Man
Summary of the method: as §1

[3] = target: Man(a1-2)Man(a1-3)[Man(a1-2)Man(a1-6)]Man(a1-6)[Man(a1-2)Man(a1-2)Man(a1-3)]Man(b1-4)GlcNAc(b1-4)GlcNAc
Summary of the method: as §1

[4] = target: Man(a1-2)Man(a1-3)[Man(a1-2)Man(a1-6)]Man(a1-6)[Man(a1-3)[Man(a1-6)]Man(a1-6)]Man(b1-4)GlcNAc(b1-4)GlcNAc
Summary of the method: as §1

[5] = target: Man(a1-2)Man(a1-3)[Man(a1-6)]Man(a1-6)[Man(a1-2)Man(a1-3)]Man(b1-4)GlcNAc(b1-4)GlcNAc
Summary of the method: as §1

[6] = target: Man(a1-2)Man(a1-6)[Man(a1-3)]Man(a1-6)[Man(a1-2)Man(a1-2)Man(a1-3)]Man(b1-4)GlcNAc(b1-4)GlcNAc
Summary of the method: as §1

Man(a1-3)[Man(a1-6)]Man = target: Man(a1-3)[Man(a1-6)]Man
Summary of the method: as §1

[7] = target: Man(a1-3)[Man(a1-6)]Man(a1-6)[Man(a1-3)]Man(b1-4)GlcNAc(b1-4)GlcNAc
Summary of the method: as §1

Neu5Ac(a2-3)Gal = target: Neu5Ac(a2-3)Gal
Summary of the method: as §1

[8] = target: Neu5Ac(a2-3)Gal(b1-3)GalNAc
Summary of the method: as §1

[9] = target: Neu5Ac(a2-3)Gal(b1-3)GalNAc6S
Summary of the method: as §1

[10] = target: Neu5Ac(a2-3)Gal(b1-3)GlcNAc
Summary of the method: as §1

[11] = target: Neu5Ac(a2-3)Gal(b1-3)[Fuc(a1-4)]GlcNAc
Summary of the method: as §1

[12] = target: Neu5Ac(a2-3)Gal(b1-3)[Neu5Ac(a2-3)Gal(b1-4)]GlcNAc
Summary of the method: as §1

[13] = target: Neu5Ac(a2-3)Gal(b1-3)[Neu5Ac(a2-6)]GalNAc
Summary of the method: as §1

Neu5Ac(a2-3)Gal(b1-4)Glc = target: Neu5Ac(a2-3)Gal(b1-4)Glc
Summary of the method: as §1

[14] = target: Neu5Ac(a2-3)Gal(b1-4)GlcNAc
Summary of the method: as §1

[15] = target: Neu5Ac(a2-3)Gal(b1-4)GlcNAc(b1-3)Gal(b1-4)GlcNAc
Summary of the method: as §1

[16] = target: Neu5Ac(a2-3)Gal(b1-4)GlcNAc(b1-3)Gal(b1-4)GlcNAc(b1-3)Gal(b1-4)GlcNAc
Summary of the method: as §1

[17] = target: Neu5Ac(a2-3)Gal(b1-4)GlcNAc6S
Summary of the method: as §1

[18] = target: Neu5Ac(a2-3)Gal(b1-4)[Fuc(a1-3)]GlcNAc
Summary of the method: as §1

[19] = target: Neu5Ac(a2-3)Gal(b1-4)[Fuc(a1-3)]GlcNAc(b1-3)Gal
Summary of the method: as §1

[20] = target: Neu5Ac(a2-3)Gal(b1-4)[Fuc(a1-3)]GlcNAc(b1-3)Gal(b1-4)GlcNAc
Summary of the method: as §1

[21] = target: Neu5Ac(a2-3)Gal(b1-4)[Fuc(a1-3)]GlcNAc(b1-3)Gal(b1-4)[Fuc(a1-3)]GlcNAc(b1-3)Gal(b1-4)[Fuc(a1-3)]GlcNAc
Summary of the method: as §1

[22] = target: Neu5Ac(a2-3)Gal(b1-4)[Fuc(a1-3)]GlcNAc6S
Summary of the method: as §1

[23] = target: Neu5Ac(a2-3)Gal6S(b1-4)GlcNAc
Summary of the method: as §1

Neu5Ac(a2-3)GalNAc = target: Neu5Ac(a2-3)GalNAc
Summary of the method: as §1

[24] = target: Neu5Ac(a2-3)[GalNAc(b1-4)]Gal(b1-4)Glc
Summary of the method: as §1

[25] = target: Neu5Ac(a2-3)[GalNAc(b1-4)]Gal(b1-4)GlcNAc
Summary of the method: as §1

[26] = target: Neu5Ac(a2-3)[Neu5Ac(a2-6)]GalNAc
Summary of the method: as §1

Neu5Ac(a2-6)Gal = target: Neu5Ac(a2-6)Gal
Summary of the method: as §1

Neu5Ac(a2-6)Gal(b1-4)Glc = target: Neu5Ac(a2-6)Gal(b1-4)Glc
Summary of the method: as §1

[27] = target: Neu5Ac(a2-6)Gal(b1-4)GlcNAc
Summary of the method: as §1

[28] = target: Neu5Ac(a2-6)Gal(b1-4)GlcNAc(b1-3)Gal(b1-4)GlcNAc
Summary of the method: as §1

[29] = target: Neu5Ac(a2-6)Gal(b1-4)GlcNAc(b1-3)Gal(b1-4)[Fuc(a1-3)]GlcNAc(b1-3)Gal(b1-4)[Fuc(a1-3)]GlcNAc
Summary of the method: as §1

[30] = target: Neu5Ac(a2-6)Gal(b1-4)GlcNAc6S
Summary of the method: as §1

Neu5Ac(a2-6)GalNAc = target: Neu5Ac(a2-6)GalNAc
Summary of the method: as §1

Neu5Ac(a2-8)Neu5Ac = target: Neu5Ac(a2-8)Neu5Ac
Summary of the method: as §1

[31] = target: Neu5Ac(a2-8)Neu5Ac(a2-3)Gal(b1-4)Glc
Summary of the method: as §1

[32] = target: Neu5Ac(a2-8)Neu5Ac(a2-3)[GalNAc(b1-4)]Gal(b1-4)Glc
Summary of the method: as §1

[33] = target: Neu5Ac(a2-8)Neu5Ac(a2-8)Neu5Ac
Summary of the method: as §1

[34] = target: Neu5Ac(a2-8)Neu5Ac(a2-8)Neu5Ac(a2-3)Gal(b1-4)Glc
Summary of the method: as §1

[35] = target: Neu5Ac(a2-8)Neu5Ac(a2-8)Neu5Ac(a2-3)[GalNAc(b1-4)]Gal(b1-4)Glc
Summary of the method: as §1

Neu5Ac(b1-6)GalNAc = target: Neu5Ac(b1-6)GalNAc
Summary of the method: as §1

[36] = target: Neu5Ac(b2-6)Gal(b1-4)GlcNAc
Summary of the method: as §1

[37] = target: Neu5Ac9Ac(a2-6)Gal(b1-4)GlcNAc
Summary of the method: as §1

[38] = target: Neu5Gc(a2-3)Gal(b1-3)GlcNAc
Summary of the method: as §1

[39] = target: Neu5Gc(a2-3)Gal(b1-3)[Fuc(a1-4)]GlcNAc
Summary of the method: as §1

Neu5Gc(a2-3)Gal(b1-4)Glc = target: Neu5Gc(a2-3)Gal(b1-4)Glc
Summary of the method: as §1

[40] = target: Neu5Gc(a2-3)Gal(b1-4)GlcNAc
Summary of the method: as §1

[41] = target: Neu5Gc(a2-3)Gal(b1-4)[Fuc(a1-3)]GlcNAc
Summary of the method: as §1

[42] = target: Neu5Gc(a2-6)Gal(b1-4)GlcNAc
Summary of the method: as §1

Neu5Gc(a2-6)GalNAc = target: Neu5Gc(a2-6)GalNAc
Summary of the method: as §1

B1: Siglec-G (Mus musculus), Q80ZE3 (protein)
chain: MSLLLFLLSFLLDGPQGQMESYFLQVQRIVKAQEGLCIFVPCSFSSPEGKWLNRSPLYGYWFKGIRKPSLSFPVATNNKDKVLEWEARGRFQLLGDISKKNCSLLIKDVQWGDSTNYFFRMERGFERFSFKEEFRLQVEALTQKPDIFIPEVLEPGEPVTVVCLFSWTFNQCPAPSFSWMGDAVSFQESRPHTSNYSVLSFIPGLQHHDTELTCQLDFSRMSTQRTVRLRVAYAPRSLAISIFHDNVSVPDLHENPSHLEVQQGQSLRLLCTADSQPPATLSWVLEDQVLSWSSPVGSRTLALELPWVKAGDSGHYTCQAENRLGSQQHTLDLSVLYPPQDLRVTVSQANRTVLEILRNAISLPVLEGQSLCLVCVTYSNPPANVSWAWVTQTLIPIQSSEPGVLELPLVQREHEGEFTCAAQNPLGAQRISLSLSVHYPPQMSSPSCSWEAKGLHCNCSSRAWPAPSLRWRLGEGLLEGNSSNASFTVTFSSLGPWVNSSLSLLQELGPSLWLSCESWNTHGAQTTSVLLLPDKDSATAFSKGAVLGFGITALLALCLIVVIVKTLQKKGTQEEPSRPKLSRGSTILDYINVVPKTRSLARNWKAEPDAPSRSSPLDTHFPKPKKKQKDPHFTYPGCPDPTSSSQVPVSENNPEELHYAALNFSRLRLQETQDPQDTYSDYTEVRVH
[1]
  glycan array binding signal (z-score): -0.025
Man(a1-2)Man(a1-3)Man
  glycan array binding signal (z-score): -0.154
[2]
  glycan array binding signal (z-score): 0.542
[3]
  glycan array binding signal (z-score): -0.004
[4]
  glycan array binding signal (z-score): -0.045
[5]
  glycan array binding signal (z-score): 0.018
[6]
  glycan array binding signal (z-score): -0.094
Man(a1-3)[Man(a1-6)]Man
  glycan array binding signal (z-score): 0.211
[7]
  glycan array binding signal (z-score): -0.08
Neu5Ac(a2-3)Gal
  glycan array binding signal (z-score): -0.095
[8]
  glycan array binding signal (z-score): 0.414
[9]
  glycan array binding signal (z-score): -0.222
[10]
  glycan array binding signal (z-score): -0.048
[11]
  glycan array binding signal (z-score): -0.371
[12]
  glycan array binding signal (z-score): 0.903
[13]
  glycan array binding signal (z-score): -0.157
Neu5Ac(a2-3)Gal(b1-4)Glc
  glycan array binding signal (z-score): -0.188
[14]
  glycan array binding signal (z-score): 0.007
[15]
  glycan array binding signal (z-score): -0.195
[16]
  glycan array binding signal (z-score): 0.063
[17]
  glycan array binding signal (z-score): -0.233
[18]
  glycan array binding signal (z-score): 0.045
[19]
  glycan array binding signal (z-score): -0.207
[20]
  glycan array binding signal (z-score): 0.188
[21]
  glycan array binding signal (z-score): 1
[22]
  glycan array binding signal (z-score): -0.019
[23]
  glycan array binding signal (z-score): -0.195
Neu5Ac(a2-3)GalNAc
  glycan array binding signal (z-score): -0.263
[24]
  glycan array binding signal (z-score): -0.37
[25]
  glycan array binding signal (z-score): -0.305
[26]
  glycan array binding signal (z-score): -0.239
Neu5Ac(a2-6)Gal
  glycan array binding signal (z-score): -0.146
Neu5Ac(a2-6)Gal(b1-4)Glc
  glycan array binding signal (z-score): -0.259
[27]
  glycan array binding signal (z-score): -0.232
[28]
  glycan array binding signal (z-score): -0.434
[29]
  glycan array binding signal (z-score): -0.007
[30]
  glycan array binding signal (z-score): -0.134
Neu5Ac(a2-6)GalNAc
  glycan array binding signal (z-score): -0.259
Neu5Ac(a2-8)Neu5Ac
  glycan array binding signal (z-score): -0.286
[31]
  glycan array binding signal (z-score): -0.205
[32]
  glycan array binding signal (z-score): -0.236
[33]
  glycan array binding signal (z-score): 1.22
[34]
  glycan array binding signal (z-score): -0.228
[35]
  glycan array binding signal (z-score): -0.348
Neu5Ac(b1-6)GalNAc
  glycan array binding signal (z-score): -0.272
[36]
  glycan array binding signal (z-score): -0.286
[37]
  glycan array binding signal (z-score): -0.105
[38]
  glycan array binding signal (z-score): -0.076
[39]
  glycan array binding signal (z-score): 0.241
Neu5Gc(a2-3)Gal(b1-4)Glc
  glycan array binding signal (z-score): -0.022
[40]
  glycan array binding signal (z-score): -0.27
[41]
  glycan array binding signal (z-score): -0.097
[42]
  glycan array binding signal (z-score): -0.344
Neu5Gc(a2-6)GalNAc
  glycan array binding signal (z-score): -0.338
